Data published in PubChem BioAssay AID1347165 (National Center for Advancing Translational Sciences (NCATS), 2019).
Screen size: about 220,000 compounds; about 5,700 (2.6%) were called active. Inconclusive means that the source gave no clear call. Such entries were picked first, then a sample of the others. The call rests on the fitted dose curve; in most records, active means well fitted inhibition curve with a large enough effect; inconclusive means small, poorly fitted or top-dose-only effect; inactive means no such curve, though single readings can be large or run the other way. Where the call is inconclusive, the potency comes from a doubtful curve fit.

target: Lysine-specific demethylase 5B (Homo sapiens) (UniProt Q9UGL1); assay: Primary screen for KDM5B Histone Demethylases FDH-coupled qHTS; conditions: FDH-coupled NADH fluorescence (FDH is formaldehyde dehydrogenase); activity change, negative = inhibition: at 57.7 µM (top of the series) unless noted; further: nearly all actives have a fitted effect of over 70% in size; on activity change, negative = inhibition: 0% is about no effect
UniProt Q9UGL1, sequence (Q9UGL1 whole entry, looked up): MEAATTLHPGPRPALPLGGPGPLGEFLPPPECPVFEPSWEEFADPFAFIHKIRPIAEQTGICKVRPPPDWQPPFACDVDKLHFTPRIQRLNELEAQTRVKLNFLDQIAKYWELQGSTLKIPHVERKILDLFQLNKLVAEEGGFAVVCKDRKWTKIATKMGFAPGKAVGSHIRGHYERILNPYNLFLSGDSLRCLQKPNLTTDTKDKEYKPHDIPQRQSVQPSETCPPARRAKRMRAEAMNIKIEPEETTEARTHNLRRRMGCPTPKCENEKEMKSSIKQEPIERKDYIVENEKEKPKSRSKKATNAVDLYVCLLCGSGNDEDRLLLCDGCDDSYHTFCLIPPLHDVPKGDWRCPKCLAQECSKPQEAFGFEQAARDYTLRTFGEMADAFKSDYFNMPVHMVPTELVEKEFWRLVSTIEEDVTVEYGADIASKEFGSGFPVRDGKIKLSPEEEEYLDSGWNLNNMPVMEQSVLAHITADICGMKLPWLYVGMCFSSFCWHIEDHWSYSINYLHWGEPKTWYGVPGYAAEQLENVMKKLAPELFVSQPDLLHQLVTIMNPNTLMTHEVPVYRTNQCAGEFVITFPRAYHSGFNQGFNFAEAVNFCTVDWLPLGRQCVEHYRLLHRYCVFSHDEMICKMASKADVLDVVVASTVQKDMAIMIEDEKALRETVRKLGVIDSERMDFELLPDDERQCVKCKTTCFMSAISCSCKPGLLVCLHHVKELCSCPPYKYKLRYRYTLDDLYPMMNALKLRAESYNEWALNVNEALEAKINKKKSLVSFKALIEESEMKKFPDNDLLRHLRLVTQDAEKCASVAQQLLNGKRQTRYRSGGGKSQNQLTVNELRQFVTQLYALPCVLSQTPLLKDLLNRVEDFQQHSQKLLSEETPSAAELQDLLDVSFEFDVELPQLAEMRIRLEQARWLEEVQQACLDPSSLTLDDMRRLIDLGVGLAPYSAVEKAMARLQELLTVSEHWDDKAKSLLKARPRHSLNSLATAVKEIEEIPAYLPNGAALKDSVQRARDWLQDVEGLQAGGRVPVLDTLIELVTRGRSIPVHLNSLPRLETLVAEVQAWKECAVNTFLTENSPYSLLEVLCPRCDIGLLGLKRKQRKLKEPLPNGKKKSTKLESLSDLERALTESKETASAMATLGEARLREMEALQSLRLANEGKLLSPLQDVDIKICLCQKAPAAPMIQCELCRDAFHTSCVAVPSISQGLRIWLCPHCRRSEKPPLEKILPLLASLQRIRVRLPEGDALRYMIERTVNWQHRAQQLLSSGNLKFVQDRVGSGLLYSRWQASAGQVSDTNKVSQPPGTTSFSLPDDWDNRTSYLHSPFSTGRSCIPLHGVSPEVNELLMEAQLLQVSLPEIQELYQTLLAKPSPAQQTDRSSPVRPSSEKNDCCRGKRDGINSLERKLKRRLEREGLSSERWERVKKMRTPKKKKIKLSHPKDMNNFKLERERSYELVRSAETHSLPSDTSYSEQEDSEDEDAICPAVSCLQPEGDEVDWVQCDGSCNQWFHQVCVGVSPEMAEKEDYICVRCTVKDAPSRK
Method in brief: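 Here, H3K4me3 peptide (12.5 µM in substrate mix) is demethylated by KDM5BΔAP, 200 nM final, after 10 min compound exposure. Formaldehyde product is coupled through FDH (0.25 U/mL in mix) to NADH fluorescence; 30-min ΔRFU feeds dose-response curves.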
Potency means the concentration at half of the fitted maximal effect; tags describe the fitted curve by direction and shape.

Row | SMILES | activity change, negative = inhibition | Potency
1 | COCCN1CCCC2(CCN(C(=O)c3oc4cc(C)ccc4c3C)C2)C1=O (stereo not given) | inactive: 18.3% | –
2 | Cc1c(C)c2ccc(OCC(=O)NCCN3CCOCC3)c(C)c2oc1=O | – | inconclusive: 12.6 µM [inhibitor, partial curve, poor fit]
3 | CCC(C)NC(=O)c1ccc(CSCc2ccccc2Cl)o1 (stereo not given) | inactive: -6.73% | –
4 | Cc1nc2cc(NC(C)C(=O)Nc3ccc(C(C)(C)C)cc3)ccc2o1 (stereo not given) | – | inconclusive: 14.1 µM [inhibitor, partial curve, poor fit]
5 | CCC(C)(C)C1CCC(NC(=O)c2cccnc2Cl)CC1 (stereo not given) | – | inconclusive: 39.8 µM [inhibitor, single point]
6 | Cc1ccc(NC(=O)CCc2c(C)nn(-c3ccc(N4CCOCC4)nn3)c2C)cc1F | – | inconclusive: 2.24 µM [inhibitor, partial curve, poor fit]
7 | C#CCNC(=O)c1nc(-c2ccccc2OC)c2ccccn12 | – | active: 100 µM
8 | COc1ccc2[nH]cc(CCNC(=O)CCC[C@H]3NC[C@@H]4C[C@H]3CN(Cc3ccccc3)C4)c2c1 | – | inconclusive: 15.8 µM [inhibitor, partial curve, poor fit]
9 | Cc1ccccc1C(=O)N1CCCN(c2nnc3ccc(Cl)cn23)CC1 | – | active: 25.1 µM
10 | CC1=C/C(=N/N=C(c2ccccc2)c2ccccc2)CC1 | inactive: 15.1% | –
11 | Cc1ccc(N2CC(c3nc4ccccc4n3C)CC2=O)cc1 (stereo not given) | inactive: -5.93% | –
12 | Cc1ccc(-n2ncc3c(N(CCO)Cc4ccccc4)ncnc32)cc1 | – | inconclusive: 35.5 µM [inhibitor, single point]
13 | COc1ccc(NC(=C(C#N)C#N)C(F)(F)C(F)(F)F)cc1 | – | inconclusive: 17.8 µM [inhibitor, partial curve, poor fit]
14 | COc1cccc(N(Cc2nnc3n2CCCCC3)C(=O)Nc2cccc(Cl)c2)c1 | – | inconclusive: 5.62 µM [inhibitor, partial curve, poor fit]
15 | CCOCCCNC(=O)CN1C(=O)c2c(c3ccccc3n2C)C1c1ccc(OC)cc1 (stereo not given) | – | inconclusive: 35.5 µM [inhibitor, partial curve, poor fit]
16 | Cc1cc(C)n(CCC(=O)N[C@@H]2CCOC[C@H]2OCC2CCC2)c(=O)n1 | inactive: -19.9% | –
17 | COc1cc(-c2onc(C)c2C(=O)NCc2cccc(F)c2F)cc(OC)c1OC | – | active: 31.6 µM
18 | COc1cc(-c2cc(C)c3c(OC)ccc(OC)c3n2)cc2c1OCCNC2 | inactive: 7.94% | –
19 | Cc1cc(=O)oc2cc(OCC(=O)N(C)CCOc3ccc(Br)cc3)ccc12 | – | inconclusive: 20 µM [inhibitor, partial curve, poor fit]
20 | CCc1ccc(Oc2nc3c(C)cccn3c(=O)c2/C=C(\C#N)c2nc3ccccc3s2)cc1 | – | inconclusive: 15.8 µM [inhibitor, partial curve, poor fit]

Row | SMILES | activity change, negative = inhibition | Potency
21 | Cc1ccc(CNC(=O)c2ccc3c(c2)CN(Cc2ccc(N(C)C)cc2)CCO3)cc1 | – | inconclusive: 28.2 µM [inhibitor, partial curve, poor fit]
22 | CC(C)c1cc(C(=O)N[C@@H]2COCC[C@@H]2OCc2ccccn2)nc(N)n1 | – | inconclusive: 31.6 µM [inhibitor, partial curve, poor fit]
23 | COc1ccc(-c2c(=O)n(OC)c3ccccc3[n+]2[O-])cc1OC | – | inconclusive: 14.1 µM [inhibitor, single point]
24 | CCCCN(C)CCNC(=O)Cn1ncc2c([nH]c3ccccc32)c1=O | – | inconclusive: 15.8 µM [inhibitor, partial curve, poor fit]
25 | CCCn1c(C)cc(C(=O)COC(=O)c2cc(C)nc3ccccc23)c1C | inactive: -13.2% | –
26 | Cn1c(Oc2ccc(F)c(F)c2)c(C#N)c(=O)n(C)c1=O | – | inconclusive: 25.1 µM [inhibitor, single point]
27 | CN(Cc1ccccc1)C(=O)c1cc2c(s1)-c1ccc(Cl)cc1SC2 | – | inconclusive: 35.5 µM [inhibitor, partial curve, poor fit]
28 | CC(CC(=O)c1ccc(Cl)cc1)CC(=O)c1ccc(Cl)cc1 | inactive: 10.6% | –
29 | Cc1ccc2c(c1)N(C(=O)Nc1ccc(Br)cc1F)CC(C)O2 (stereo not given) | inactive: 4.46% | –
30 | CCOc1ccc(CNC(=O)Cn2c(=O)c3cccn3c3ccc(F)cc32)cc1OC | – | inconclusive: 1.26 µM [inhibitor, full curve, poor fit]
31 | COc1cccc(C2CC(=O)Oc3c2c(=O)[nH]c2ccccc32)c1 (stereo not given) | – | inconclusive: 22.4 µM [inhibitor, single point]
32 | O=c1[nH]cccc1-n1ccnc1-c1cccc(Cl)c1 | – | inconclusive: 8.91 µM [inhibitor, partial curve, poor fit]
33 | COc1cc(/C=C/c2nc(C#N)c(NC(C)c3ccccc3)o2)cc(OC)c1OC (stereo not given) | – | inconclusive: 25.1 µM [inhibitor, partial curve, poor fit]
34 | CCOC(=O)c1c(C)oc2ncnc(N3CCN(c4cccc(Cl)c4)CC3)c12 | – | inconclusive: 39.8 µM [inhibitor, single point]
35 | COC(=O)[C@@H]1Cc2ncn(Cc3ccc(Cl)cc3)c2CN1Cc1cccc(C#N)c1 | – | inconclusive: 39.8 µM [inhibitor, single point]
36 | CCOC(=O)c1c(C)[nH]c(C)c1S(=O)(=O)N1CCN(c2ccccc2OC)CC1 | – | inconclusive: 2.82 µM [inhibitor, full curve, poor fit]
37 | COc1ccc(Cl)cc1NC(=O)CSc1nc2ccccc2nc1N1CCCCC1 | – | inconclusive: 14.1 µM [inhibitor, partial curve, poor fit]
38 | Nc1cncc(-c2nccc(N3CCC(O)CC3)n2)c1 | – | inconclusive: 25.1 µM [inhibitor, partial curve, poor fit]
39 | CC1=C(C(=O)Nc2ccccc2)C(c2ccccc2Cl)n2ncc(C(=O)Nc3cccc(C)c3)c2N1 (stereo not given) | – | inconclusive: 35.5 µM [inhibitor, partial curve, poor fit]
40 | CCOC(=O)c1cc(-c2ccccc2)n(CCCC(=O)Nc2ccc(C)c(C)c2)c1C | – | inconclusive: 25.1 µM [inhibitor, single point]
